Assay results taken from the supplement of paper PMC11348887.
Where a name gives a salt, the structure may show the parent alone. The list shows a part of the results. No stated cut-off is given here; in the data, active = -2 or less and inactive = the rest. Many values rest on one well or one pass, so single values are uncertain.

The molecules below were run on hPSC-derived cortical neurons (WA09) (assay: nuclei number (viability) z-score; higher = more surviving cells). Settings: 5 µM; treatment: days 7-14 after plating, readout day 21.
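Further: nuclei counted from DAPI counterstain by automated high-content image analysis, four fields per well at ×20 in 384-well plates, with sequential b-score then z-score normalization.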

| Structure (SMILES) | nuclei number (z-score) |
| --- | --- |
| CN(C)[C@@H]1C(O)=C(C(N)=O)C(=O)[C@@]2(O)C(O)=C3C(=O)c4c(O)cccc4[C@@](C)(O)[C@H]3[C@H](O)[C@@H]12 [Oxytetracycline Dihydrate] | active: -2.58 |
| CN(C)[C@@H]1C(O)=C(C(N)=O)C(=O)[C@@]2(O)C(O)=C3C(=O)c4c(O)cccc4[C@@](C)(O)[C@H]3[C@H](O)[C@@H]12 [Oxytetracycline (Terramycin)] | inactive: 1.73 |
| C/C(=C\c1ccc(C(=O)O)cc1)c1ccc2c(c1)C(C)(C)CCC2(C)C [TTNPB (Arotinoid Acid)] | inactive: 0.281 |
| COc1ccc(-c2ccc3c(N4CCOCC4)nc(N4C[C@@H](C)O[C@@H](C)C4)nc3n2)cc1CO | inactive: 0.493 |
| COc1cc(NC(C)CCCN)c2ncccc2c1 (configuration not stated) [Primaquine Diphosphate] | inactive: -0.239 |
| Cc1noc(C)c1-c1ccc(-c2cc(C(N)=O)c(NC(N)=O)s2)c(O[C@H]2CCNC2)c1 | inactive: 0.464 |
| Cc1ccc([N+](=O)[O-])cc1S(=O)(=O)N(C)/N=C/c1cnc2ccc(Br)cn12 | active: -3.48 |
| CCCCCCCc1ccc(CCc2cccc(O)c2C(=O)O)cc1 | inactive: 0.322 |
| CCN(c1cc(C#CCN2CCOCC2)cc(C(=O)NCc2c(C)cc(C)[nH]c2=O)c1C)[C@H]1CC[C@H](N(C)CCOC)CC1 | inactive: -0.0197 |
| CC(C)(c1ccc(OCC(O)CO)cc1)c1ccc(OCC(O)CCl)cc1 (configuration not stated) | inactive: 0.437 |
| CCCCN1CCCCC1C(=O)Nc1c(C)cccc1C (configuration not stated) [Bupivacaine HCl] | inactive: 1.04 |
| CCOC(=O)c1[nH]c2cc(Cl)ccc2c1C(C(=O)NC(C)(C)C)N(C=O)Cc1ccc(Cl)cc1 (configuration not stated) | inactive: 0.189 |
| CC(C)(C)c1ccc(C(O)CCCN2CCC(C(O)(c3ccccc3)c3ccccc3)CC2)cc1 (configuration not stated) [Terfenadine] | active: -8.52 |
| Cc1ccc2c(=O)c3cccc(CC(=O)O)c3oc2c1C [DMXAA (Vadimezan)] | inactive: 0.887 |
| C=C1/C(=C\C=C2/CCC[C@]3(C)[C@@H]([C@H](C)/C=C/[C@H](C)C(C)C)CC[C@@H]23)C[C@@H](O)C[C@@H]1O [Doxercalciferol] | inactive: 0.644 |
| CCOP(=O)(OCC)C(=Cc1cc(C(C)(C)C)c(O)c(C(C)(C)C)c1)P(=O)(OCC)OCC | inactive: -0.0484 |
| C[C@H]1O[C@@H](Oc2c(-c3cc(O)c(O)c(O)c3)oc3cc(O)cc(O)c3c2=O)[C@@H](O)[C@@H](O)[C@@H]1O [Myricitrin] | inactive: 0.853 |
| Oc1cc2c(cc1O)[C@@H]1c3ccc(O)c(O)c3OC[C@]1(O)C2 [Hematoxylin] | inactive: -0.58 |
| CC(C(=O)O)c1ccc2c(c1)CC(=O)c1ccccc1S2 (configuration not stated) [Zaltoprofen] | inactive: -0.102 |
| COc1ccc(CC2c3cc(OC)c(OC)cc3CC[N+]2(C)CCC(=O)OCCCCCOC(=O)CC[N+]2(C)CCc3cc(OC)c(OC)cc3C2Cc2ccc(OC)c(OC)c2)cc1OC (configuration not stated) [Atracurium Besylate] | inactive: 1.56 |
| CC(=O)[C@H]1CC[C@H]2[C@@H]3CC=C4C[C@@H](O)CC[C@]4(C)[C@H]3CC[C@]12C [Pregnenolone] | inactive: -0.814 |
| CN(C)c1ccc(C(=C2C=CC(=[N+](C)C)C=C2)c2ccc(N(C)C)cc2)cc1 [Crystal Violet] | active: -7.04 |
| C[C@@H](O)[C@H]1C(=O)N2C(C(=O)[O-])=C(SC3Cn4cnc[n+]4C3)[C@H](C)[C@H]12 (some centres not stated) [Biapenem] | inactive: 0.529 |

| Structure (SMILES) | nuclei number (z-score) |
| --- | --- |
| Cc1nc(-c2ccc(OCC(C)C)c(C#N)c2)sc1C(=O)O [Febuxostat] | inactive: 0.217 |
| Cc1cc(Nc2nc(N[C@@H](C)c3ccc(F)cc3)c(C#N)cc2F)n[nH]1 | active: -4.02 |
| CC(C)c1ccc2c(c1)c(SC(C)(C)C)c(CC(C)(C)C(=O)O)n2Cc1ccc(Cl)cc1 | inactive: 0.0771 |
| CCN1CCN(Cc2ccc(-c3cc4c(N[C@H](C)c5ccccc5)ncnc4[nH]3)cc2)CC1 | inactive: 1.14 |
| CCOC(=O)c1c(CSc2ccccc2)n(C)c2cc(Br)c(O)c(CN(C)C)c12 [Arbidol HCl] | inactive: 0.877 |
| COc1cc(N2CCC(N3CCN(C)CC3)CC2)ccc1Nc1ncnc(Nc2ccccc2S(=O)(=O)C(C)C)n1 | inactive: -1.09 |
| CCN(CCO)CCCC(C)Nc1ccnc2cc(Cl)ccc12 (configuration not stated) [Hydroxychloroquine Sulfate] | inactive: 0.104 |
| Cc1nc(Nc2ncc(C(=O)Nc3c(C)cccc3Cl)s2)cc(N2CCN(CCO)CC2)n1 [Dasatinib] | inactive: 3.15 |
| Cc1nc(Nc2ncc(C(=O)Nc3c(C)cccc3Cl)s2)cc(N2CCN(CCO)CC2)n1 [Dasatinib Monohydrate] | active: -6.41 |
| COc1cc([C@@H]2c3cc4c(cc3[C@@H](O[C@@H]3O[C@@H]5CO[C@@H](c6cccs6)O[C@H]5[C@H](O)[C@H]3O)[C@H]3COC(=O)[C@H]23)OCO4)cc(OC)c1O [Teniposide] | active: -5.28 |
| O=C1NC(=O)/C(=C/c2ccc3c(c2)OC(F)(F)O3)S1 | inactive: -0.01 |
| CCOc1ccccc1OC(c1ccccc1)C1CNCCO1 (configuration not stated) [Reboxetine mesylate] | inactive: -0.852 |
| O=c1[nH]cnc2c1ncn2[C@@H]1O[C@H](CO)[C@@H](O)[C@H]1O [Inosine] | inactive: 1.53 |
| CN(C)CCCN1c2ccccc2Sc2ccc(Cl)cc21 [Chlorpromazine HCl] | inactive: -0.58 |
| C[C@H](Nc1ncnc2[nH]cnc12)c1cc2ccc(F)cc2nc1-c1ccccn1 | inactive: -0.0374 |
| Nc1ccc(C(=O)Nc2cccc(-c3nc(N4CCOCC4)c4oc5ncccc5c4n3)c2)cn1 | active: -2.08 |
| O=c1ccc2ccccc2o1 [Coumarin] | inactive: 0.112 |
| Nc1nc(=S)c2ncn([C@H]3C[C@H](O)[C@@H](CO)O3)c2[nH]1 | inactive: 0.435 |
| CCOc1ccc(C[C@H]2NC(=O)CCSSC[C@@H](C(=O)N3CCC[C@H]3C(=O)N[C@@H](CCCN)C(=O)NCC(N)=O)NC(=O)[C@H](CC(N)=O)NC(=O)[C@H]([C@@H](C)O)NC(=O)[C@H]([C@@H](C)CC)NC2=O)cc1 [Atosiban Acetate] | inactive: -0.0774 |
| Cc1nc(-c2cccnc2)sc1C(=O)Nc1ccccc1-c1cn2c(CN3CCOCC3)csc2n1 | inactive: -0.312 |
| COc1ccnc(C[S+]([O-])c2nc3cc(OC(F)F)ccc3[nH]2)c1OC (configuration not stated) [Pantoprazole sodium] | inactive: 0.528 |
| Cc1cc(C)c(S(=O)(=O)n2cc(C)cc2C)c(C)c1 | inactive: -0.954 |
| Cc1[nH]c2ccccc2c1CCNCc1ccc(/C=C/C(=O)NO)cc1 [Panobinostat (LBH589)] | active: -2.48 |

| Structure (SMILES) | nuclei number (z-score) |
| --- | --- |
| O=c1[nH]c(=O)c2ccccc2o1 [Carsalam] | inactive: 0.474 |
| Nc1ccn([C@@H]2O[C@H](CO)[C@@H](O)[C@@H]2O)c(=O)n1 [Cytarabine] | active: -3.65 |
| Cn1cc(-c2ccncc2)c(-c2ccc(OCc3ccc4ccccc4n3)cc2)n1 | inactive: 1.23 |
| O=C(O)[C@H]1O[C@@H](Oc2cc3oc(-c4ccccc4)cc(=O)c3c(O)c2O)[C@H](O)[C@@H](O)[C@@H]1O [Baicalin] | inactive: -0.203 |
| Nc1ccc(S(=O)(=O)Nc2ccccn2)cc1 [Sulfapyridine] | inactive: 0.216 |
| C=CC(=O)Nc1ccc(CN2C(=O)N(c3cc(OC)cc(OC)c3)Cc3cnc(Nc4ccc(N5CCN(C)CC5)cc4)nc32)cc1 | active: -5.38 |
| c1cncc(CN2CCC(n3ncc4c(N5CCOCC5)nc(-c5ccc6[nH]ccc6c5)nc43)CC2)c1 | active: -3.57 |
| COC1CCN(C(=O)c2cc(Cc3n[nH]c(=O)c4ccccc34)ccc2F)CC1 | inactive: 0.582 |
| O=C(O)C1(C(=O)O)CCC1.[NH2-].[NH2-].[Pt+2] [Carboplatin] | inactive: 0.222 |
| O=c1c(O)c(-c2ccc(O)c(O)c2)oc2cc(O)cc(O)c12 [Quercetin Dihydrate] | inactive: 0.0993 |
| O=c1c(O)c(-c2ccc(O)c(O)c2)oc2cc(O)cc(O)c12 [Quercetin] | inactive: 0.178 |
| COc1ccc(C2=N[C@H](c3ccc(Cl)cc3)[C@H](c3ccc(Cl)cc3)N2C(=O)N2CCNC(=O)C2)c(OC(C)C)c1 [Nutlin-3b] | inactive: 0.527 |
| Cc1cnc(C(=O)O)c[n+]1[O-] [Acipimox] | inactive: 0.393 |
| O=C(c1cncc(Br)c1)N1CCC(N2CCCC2)CC1 | inactive: 0.654 |
| O=C(Nc1ccc([N+](=O)[O-])cc1O)Nc1ccccc1Br | active: -2.51 |
| O=C(O)c1cc(I)ccc1NC(=O)[C@H](Cc1ccccc1)NCc1ccccc1 | inactive: -0.988 |
| CCN1CCN(Cc2ccc(Nc3ncc(F)c(-c4cc(F)c5nc(C)n(C(C)C)c5c4)n3)nc2)CC1 | active: -4.16 |
| COCCc1ccc(OCC(O)CNC(C)C)cc1 (configuration not stated) [Metoprolol Tartrate] | inactive: 1.01 |
| Nc1nc2[nH]cc(CCc3ccc(C(=O)N[C@@H](CCC(=O)O)C(=O)O)cc3)c2c(=O)[nH]1 [Pemetrexed] | inactive: 0.0353 |
| Nc1nc2[nH]cc(CCc3ccc(C(=O)N[C@@H](CCC(=O)O)C(=O)O)cc3)c2c(=O)[nH]1 [Pemetrexed Disodium Hydrate] | inactive: -0.228 |
| COc1ccc(C(=O)c2ccccc2O)c(O)c1 [2,2_-Dihydroxy-4-methoxybenzophenone] | inactive: 0.233 |
